Source: patent US20160346398A1, “CROSS-LINKED HYALURONIC ACID FOR DRUG DELIVERY AND PHARMACEUTICAL PREPARATION USING SAME” (ALURON BIOPHARMA INC., priority 2015, published 2016)

Columns and labels:
[1] = test system: human breast MCF-7 tumors
[2] = test system: human breast MCF-7 tumors; conditions: for activity towards human MCF-7 breast tumors (in words): dose 50 mg/kg

SMILES	Mean tumor volume (mm^3) ± SD ([1]; Day 60, dose 5 mg/kg oral) [mm^3]	tumor regression (in words) ([1]; dose 5 mg/kg)	Number of tumor-free animals ([1]; end of study, dose 5 mg/kg)	Mean tumor volume (mm^3) ± SD ([2]; Day 49, dose 50 mg/kg oral) [mm^3]	activity towards human MCF-7 breast tumors (in words) ([2]; listed as Pure Raloxifene)	activity towards human MCF-7 breast tumors (in words) ([2]; listed as Unconjugated Raloxifene)
N#Cc1ccc(C(c2ccc(C#N)cc2)n2cncn2)cc1 [Letrozole]	54.0 ± 13.9	tumor regression leading to tumor-free animals	3/10			
O=C(c1ccc(OCCN2CCCCC2)cc1)c1c(-c2ccc(O)cc2)sc2cc(O)ccc12 [Raloxifene]				1919.5 ± 104.1	did not suppress tumor growth	inactive

Read-outs that look alike come from different tables or passages of the source.
